Reference: publication PMC12040169 (PLOS Biology, 2025)
The other results are listed elsewhere or left out.

system: T1, C. trachomatis L2/434/Bu expressing GFP (CTL2-GFP); design: species or system HeLa; C. trachomatis total inclusion area by high-content imaging, normalised to DMSO; conditions: total inclusion area; 28.5 h, 10 µM; inhibitor
T1 construct: L2/434/Bu GFP intracellular growth in HeLa cells
How it was run: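 Following bulk GFP and resorufin fluorescence reads, infected cells were fixed, Hoechst-stained and imaged on a high-content platform. Inclusion total area and number per well served as growth proxies; nuclei counts indicated host viability. MICs were derived as for the fluorescence assay.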

Row | Compound | % of control remaining
1 | COc1cc(-c2cncc(Nc3ccc4c(c3)OC(F)(F)C(F)(F)O4)n2)cc(OC)c1OC [CBK065138] | 79.3085
2 | CS(=O)(=O)Nc1ccc(-c2cc(F)cc(F)c2)c2ccccc12 [CBK083743] | 92.9
3 | N=c1n(CCCOc2ccccc2Cl)c2ccccc2n1CC(N)=O [CBK268927C] | 101.249
4 | CCOc1ccc2[nH]c(C(=O)NC3CCCOC3)c(C)c2c1 (centres unmarked) [CBK282529] | 119.641
5 | COC(=O)c1ccccc1N1C(=O)c2cccc([N+](=O)[O-])c2C1=O [CBK115382] | 85.4583
6 | Cc1nonc1NC(=O)CSc1nc2ccccc2[nH]1 [CBK269273] | 89.4509
7 | Fc1ccccc1CCOc1cncc(Cl)n1 [CBK176038] | 35.53
8 | CCOc1ccc(S(=O)(=O)NCCOC)cc1Cl [CBK270251] | 75.3362
9 | Cc1cc(OCC(O)CN2CCN(CCO)CC2)ccc1C(C)C (centres unmarked) [CBK278254C] | 102.66
10 | N#CCCn1cc(C(N)=O)c(-c2cc3ccccc3o2)n1 [CBK306204] | 57.0278
11 | CN1CCCN(C(=O)c2ccc(-c3nc(-c4ccc(C#N)cc4)cnc3N)cc2)CC1 [CBK107140] | 58.4865
12 | Fc1ccc(-c2cc(Nc3ccccc3)ncn2)cc1F [CBK090913] | 98.2392
13 | Cc1ccc(S(=O)(=O)NCCn2nc(C)c(C)c2C)s1 [CBK281502] | 104.072
14 | O=C(NC(c1ccccc1)c1ccccc1)C1(c2ccccc2)CCCC1 [CBK149536] | 86.3148
15 | CCCCc1ccc(N2C(=O)CC(Nc3ccc(C(=O)O)cc3)C2=O)cc1 (centres unmarked) [CBK296972] | 91.399
16 | COc1ccc(C(NC(=O)N(C(C)C)C(C)C)c2nccn2C)cc1 (centres unmarked) [CBK283568] | 69.3618
17 | Cc1c(C(N)=O)sc2ncn(CCc3ccccc3)c(=O)c12 [CBK268492] | 115.818
18 | Cn1cc(C(NC(=O)c2cn3ccsc3n2)C2CC(O)C2)cn1 (centres unmarked) [CBK307428] | 59.707
19 | CCOc1ccc(-c2ccnc(N3CCOC(CN)C3)n2)cc1C(=O)O (centres unmarked) [CBK307644] | 67.8528
20 | Cn1ncnc1CCNC(=O)N1CCCN(Cc2cccs2)CC1 [CBK307670] | 54.4197
21 | O=C(O)c1cc(C=Cc2ccc(OC(F)F)cc2)nc2ccccc12 [CBK297532] | 93.845
22 | COc1cc(C)ccc1S(=O)(=O)Nc1cc(OC2CCNCC2)c2occc2c1 [CBK074192C] | 95.3666
23 | O=C1CCC[C@]2(CN(C(=O)C3CC3)C[C@H]2c2ccccc2F)N1 [CBK283357] | 111.726
24 | COc1cc(-c2nnc(CSCc3n[nH]c(=O)[nH]3)o2)cc(OC)c1OC [CBK299814] | 120.969
25 | OCC1CCCN(Cc2c(C3CCCC3)[nH]c3ncccc23)C1 (centres unmarked) [CBK285332] | 121.145
26 | COCCn1c(SCc2c(C)nc3ccccn23)nc(C)c1C [CBK305212] | 102.676
27 | O=C(c1ccccc1Cl)N1CCN(c2ccc([N+](=O)[O-])c(NCc3cccnc3)c2)CC1 [CBK265866] | 65.1097

Row | Compound | % of control remaining
28 | O=C(N/N=C/c1ccc([N+](=O)[O-])cc1)c1ccc(O)cc1O [CBK261591] | 93.9699
29 | CC(C)c1ccc(S(=O)(=O)NC(C#N)c2ccccc2)cc1 (centres unmarked) [CBK044403] | 103.995
30 | O=C(Nc1ccccc1)N(Cc1nc(-c2ccccc2)no1)C1CCCCC1 [CBK269830] | 111.84
31 | CC(=O)Nc1ccc2nc(NC(=O)c3ccc(C)cc3)sc2c1 [CBK287304] | 112.672
32 | CC(C)[C@@H](CO)n1c(=O)[nH]c2ncc(-c3ccco3)nc21 [CBK065018] | 85.1309
33 | CCCCSc1sc(C(=O)O)c(-c2ccc(Cl)cc2)c1C#N [CBK122551] | 53.3812
34 | CCOC(=O)c1c(NC(=O)CCC(=O)O)sc2c1CCCCC2 [CBK262648] | 101.656
35 | CS(=O)(=O)Nc1cc(-c2noc([C@@H]3CCCN3Cc3ccccn3)n2)ccn1 [CBK288885] | 107.372
36 | CCC(CC)C(=O)N1CC[C@H]2NC(=O)N(Cc3ccccc3)C(=O)[C@H]21 [CBK289291] | 107.723
37 | O=C(O)c1cn(C2CC2)c2cc(N3CCN(C(=O)Cc4ccsc4)CC3)c(F)cc2c1=O [CBK297142] | 12.1921
38 | Cc1ccsc1C(=O)N1CCC(c2nn(C)c3ncccc23)CC1 [CBK285102] | 91.9228
39 | O=C(CSC1=NC(=O)C(c2ccccc2)C(=O)N1)NC1CCCCC1 (centres unmarked) [CBK263804] | 116.297
40 | COc1ccc2c3c1CCC(C)(C)C3COC2CCN1CCN(c2ccc(F)cc2)CC1 (centres unmarked) [CBK024047C] | 40.3048
41 | Cc1ccc(-c2nccnc2OCCc2c[nH]c3ccccc23)cc1C [CBK106850] | 90.9019
42 | O=C(c1ccncc1)N1C2CCC1CC(c1ccc(F)cc1)C2 (centres unmarked) [CBK283763] | 93.8569
43 | O=S(=O)(NCc1ccccc1)c1cccc2nonc12 [CBK265692] | 94.1392
44 | O=C(Nc1ccccc1[N+](=O)[O-])c1cc(S(=O)(=O)NCc2ccco2)ccc1Cl [CBK264557] | 100.22
45 | CC(CCCC(C)(C)O)NCCO (centres unmarked) [CBK262340] | 77.2631
46 | COc1ccc(CCNC(=O)N2CCC(C(=O)O)CC2)cc1 [CBK156073] | 74.683
47 | CC(C)(CNC(=O)c1ccc(=O)n(CC(=O)Nc2ccc(F)cc2)c1)c1cccc(F)c1 [CBK285955] | 102.347
48 | COc1cccc2ncn(CCNS(C)(=O)=O)c(=O)c12 [CBK306583] | 52.5277
49 | c1ccc(-c2cnc3c(N4CCCC4)nc(-c4cccnc4)cn23)cc1 [CBK092245] | 102.872
50 | O=C(CCN1CCN(CCO)CC1)Nc1ccc(Cl)cc1 [CBK033787] | 103.367
51 | CN(C)c1ccc(Nc2cc(-c3ccc(OCc4ccccc4)cc3)ncn2)cc1 [CBK090941] | 92.7065
52 | CC(Oc1ccccc1)C(=O)NCCN1CCOCC1 (centres unmarked) [CBK263812] | 48.5372
53 | N#CC(C(=O)NC1CCCCC1)C(=O)c1nn(-c2ccccc2)c2c1CSc1ccccc1-2 (centres unmarked) [CBK017690] | 103.397
54 | Cc1ccc(C(=O)C(OC(=O)CN2C(=O)c3cccc([N+](=O)[O-])c3C2=O)c2ccccc2)cc1C (centres unmarked) [CBK265519] | 106.577

Row | Compound | % of control remaining
55 | CC(NC(=O)C1CCN(Cc2nccs2)CC1)c1ccc(F)cc1 (centres unmarked) [CBK148056] | 106.595
56 | CC(C)NC(=O)Cn1c(=O)n(Cc2cccs2)c2ncccc21 [CBK283900] | 99.4493
57 | O=C(CC(Nc1ccc2ccccc2c1)c1ccncc1)c1ccc(Br)cc1 (centres unmarked) [CBK262209] | 110.126
58 | COCC(=O)N1C[C@@H](c2ccc(F)c(F)c2)[C@@]2(CCCC(=O)N2)C1 [CBK283358] | 68.5871
59 | Oc1ccc(-c2nccnc2NCCc2ccncc2)cc1 [CBK037302] | 122.475
60 | CCn1ncc2c(C(=O)NC(C)COC)cc(-c3cccs3)nc21 (centres unmarked) [CBK304955] | 84.6022
61 | O=C(O)c1c[nH]nc1-c1ccc(Br)cc1 [CBK266368] | 126.256
62 | CCNC(=O)CN1CCN(C(=O)C(C)(C)c2cccc(C#N)c2)CC1 [CBK306141] | 59.2695
63 | CCOC(=O)C1CCCCN1Cc1ccc(O)c(OC)c1 (centres unmarked) [CBK261541] | 87.3362
64 | COc1cccc(C2(NC(=O)Cn3nc(C)cc3C)CCCC2)c1 [CBK283648] | 81.0181
65 | CC(=O)N1CCc2ccc(S(=O)(=O)n3ccc4c(N5CCNCC5)cccc43)cc2C1 [CBK001632C] | 71.3869
66 | COc1ccc(OCC(=O)N2CCN(C3CCC(c4ccccc4)CC3)CC2)cc1 (centres unmarked) [CBK263459] | 80.9939
67 | Cc1ccc(S(=O)(=O)NCCOc2ccccc2)c(C)c1NS(C)(=O)=O [CBK268210] | 103.279
68 | c1ccc(C(Oc2nccnc2-c2ccc3c(c2)OCO3)c2ccccc2)cc1 [CBK106707] | 88.9442
69 | COc1cc2c(cc1-c1nccn1CC1CN(C(C)=O)CCO1)CCC2 (centres unmarked) [CBK306850] | 107.289
70 | O=C(c1ccc(F)cc1)N1C[C@@H](c2ccsc2)[C@@H]2CN(Cc3cccc(F)c3)CC[C@@H]21 [CBK285640] | 106.185
71 | O=C(CC1NC(=O)N(C2CCCCC2)C1=O)Nc1cccc(CCc2ccncc2)c1 (centres unmarked) [CBK285563] | 114.03
72 | Cc1cc(C)cc(NC(=O)C2CC(=O)N=C(NCc3ccccc3)N2)c1 (centres unmarked) [CBK269054] | 109.366
73 | CC(=O)Nc1cc2nc3ccccc3nc2cc1NC(C)=O [CBK261018] | 92.1486
74 | Cc1nnc(SCc2nc3ccccc3c(=O)[nH]2)[nH]1 [CBK267830] | 84.8886
75 | COC(=O)CN1C(c2ccccc2O)Nc2ccc(Br)cc2C1c1ccccc1 (centres unmarked) [CBK263133] | 98.0185
76 | O=C(C1CCC1)N1C2CCC1Cn1c(nc3ccccc3c1=O)C2 (centres unmarked) [CBK284453] | 99.6904
77 | COc1ccc(CC(=O)N2CCCC(c3nccnc3-c3cccc(C)c3)C2)cc1 (centres unmarked) [CBK286137] | 81.9465
78 | COc1ccc(NS(=O)(=O)c2ccc(C)cc2)cn1 [CBK010484] | 49.51
79 | Clc1ccc(CN2CCCN(c3nccc(OCC4COc5ccccc5O4)n3)CC2)cc1 (centres unmarked) [CBK084038] | 58.1016
80 | COc1cc(C(=O)NN)cc(OC)n1 [CBK012275] | 71.4449
